Measured values reported in PubChem BioAssay AID652104 (National Center for Advancing Translational Sciences (NCATS), 2013).
In all, about 410,000 compounds went through this assay and about 7,200 (1.8%) were called active. The shares of active, inactive and inconclusive entries below differ from those in the screen. Calls come from the whole dose curve; as a rule, active = well fitted activation curve with a large enough effect; inconclusive = small, poorly fitted or top-dose-only effect, or another doubt; inactive = no such curve, though single readings can be large or run the other way. No potency is given beside an inconclusive call; the fits are too rough.
Potency is the fitted concentration of half-maximal effect; tags give direction and shape of the fitted curve.

Assay: qHTS of TDP-43 Inhibitors; note: nearly all actives have a fitted effect of over 50% in size; for growth rescue (activation): % of control where 0% means no effect
Conditions: TDP-43 expressing yeast growth rescue, BacTiter-Glo, 24 h; growth rescue (activation): at 46.1 µM (top of the series) unless noted
How it was run: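 Yeast cells expressing TDP-43 under galactose induction are exposed to compounds for 24 hr at 30 deg C. BacTiter-Glo luminescence measures growth, so protective compounds score as activators.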
In the case of `COc1ccc(CNC(=O)C2CCN(c3nnc(-n4cccc4CNc4ccc(C)cc4)s3)CC2)c(OC)c1`, the Potency is reported as “inactive”. In the case of `CC(C)Oc1cc(F)ccc1-c1cc(C(=O)NCc2ccccc2)[nH]n1`, the Potency is reported as inconclusive [activator, single point]. For `COc1ccc(Cl)cc1NC(=O)CCn1cnc2ccccc2c1=O`, the Potency was inconclusive [activator, partial curve]. In the case of `CN(NC1OC(=O)c2ccccc21)c1ccc(Cl)cc1[N+](=O)[O-]` (stereo unspecified), the Potency is reported as inconclusive [activator, partial curve]. For `CCCNC(=S)Nc1ccc(Nc2ccccc2)cc1`, the Potency was inconclusive [activator, partial curve]. In the case of `COc1cc(C(C)=O)ccc1OCC(=O)Nc1ccccc1N1CCCC1`, the Potency is reported as inconclusive [activator, single point]. With `O=C(Nc1ccc(Cl)c(S(=O)(=O)N2CCCCC2)c1)c1cnccn1` the Potency was inconclusive [activator, single point]. For `Cc1ccc(Cl)cc1N1CCN(C(=O)c2cc(S(=O)(=O)N3CCCCCC3)cn2C)CC1`, the Potency was inconclusive [activator, partial curve, poor fit]. In the case of `CCNC(=S)N1CCc2ccccc2C1`, the growth rescue (activation) is reported as inactive: 3.4% [at 9.22 µM]. For `CCOc1ncccc1C(=O)OCC(=O)Nc1nnc(-c2ccccc2)o1`, the Potency was inconclusive [activator, single point]. With `N#Cc1nc(-c2cccc3ccccc23)oc1NCC1CCCO1` (stereo unspecified) the Potency was inconclusive [activator, single point]. With `CCOc1ccc(-c2nn(-c3ccccc3)cc2C2NC(=O)NC(C)=C2C(=O)OC(C)C)cc1C` (stereo unspecified) the Potency was “inactive”. In the case of `COc1ccccc1C(=O)COC(=O)c1ccc(N(C)C)cc1`, the Potency is reported as inconclusive [activator, partial curve]. With `CC(C)(C)c1ccc(C(=O)O/N=C(\N)c2ccccc2)cc1` the Potency was active: 3.16 µM. In the case of `O=C(Cn1ccn(-c2cccc(Cl)c2)c(=O)c1=O)c1ccc(F)cc1`, the Potency is reported as inconclusive [activator, full curve, poor fit]. In the case of `O=C(NC1CCCCC1)c1ccc(CNc2ccccc2)o1`, the Potency is reported as inconclusive [activator, partial curve]. With `CC(C)c1ccccc1NC(=O)CN(c1ccccc1)S(=O)(=O)N(C)C` the Potency was inconclusive [activator, full curve, poor fit]. In the case of `C=Cc1ccc(CSc2nnc(C)n3c2cc2occc23)cc1`, the Potency is reported as inconclusive [activator, partial curve]. For `CC(C)CN(C(=O)COC(=O)CCN1C(=O)c2ccccc2C1=O)C1CCS(=O)(=O)C1` (stereo unspecified), the Potency was inconclusive [activator, full curve, poor fit]. For `CC(C)C[C@@H](CN)NC(=O)c1nc[nH]c1C(=O)N[C@@H](Cc1c[nH]c2ccccc12)C(=O)CNC[C@H](C)NC(=O)c1nc[nH]c1C(=O)N[C@@H](C)C(=O)O`, the Potency was inconclusive [activator, single point]. In the case of `Cc1ccc(S(=O)(=O)N(CC(=O)N2CCN(c3ccccc3F)CC2)C2CCCCC2)cc1`, the Potency is reported as inconclusive [activator, single point]. For `C=CCOc1c(Cl)cc(C(=S)N2CCCC2)cc1OCC`, the Potency was inconclusive [activator, partial curve]. With `CC1Nc2ncnc(N3CCc4ccccc4C3)c2N(Cc2ccc(Cl)cc2)C1=O` (stereo unspecified) the Potency was “inactive”. In the case of `Nc1ccc2c(c1)C(=O)Cc1ccccc1S2`, the Potency is reported as inconclusive [activator, partial curve]. In the case of `Cc1ccc(-c2nnc(CSc3nnc(COc4ccccc4)n3-c3ccccc3)o2)cc1`, the Potency is reported as inconclusive [activator, single point]. In the case of `COc1ccc(C(=O)Nc2ccc(C)c(S(=O)(=O)N3CCCCCC3)c2)cc1`, the Potency is reported as inconclusive [activator, single point]. With `COc1ccc(/C=C/C(=O)c2cc(F)ccc2OC(=O)c2ccccc2)cc1OC` the Potency was active: 12.6 µM. For `CCCCNC(=O)C(Sc1ccccc1)c1ccccc1` (stereo unspecified), the Potency was inconclusive [activator, single point]. For `Cc1ccc(C(=O)O/N=C(/c2nonc2N)N(C)C)cc1`, the Potency was inconclusive [activator, single point]. For `CC(=O)C1=C(C)NC(SCc2ccc(C#N)cc2)=C(C#N)C1c1ccco1` (stereo unspecified), the Potency was inconclusive [activator, partial curve]. For `CCOC(=O)c1ccc(NC(=O)C(C)N(c2ccc(OCC)cc2)S(C)(=O)=O)cc1` (stereo unspecified), the Potency was inconclusive [activator, partial curve, poor fit]. In the case of `Cc1cccc(CNC(=O)Cc2ccc(NC(=O)N3CCCCc4ccccc43)cc2)c1`, the Potency is reported as inconclusive [activator, full curve, poor fit]. In the case of `CN1C(=O)c2c(sc3c2CC(C)(C)SC3)N2CCN=C12`, the Potency is reported as inconclusive [activator, single point]. With `CCc1ccc(C(=O)COC(=O)c2cc([N+](=O)[O-])ccc2NCCO)cc1` the Potency was inconclusive [activator, single point]. For `CCOC(=O)c1sc(C)c2c1NC(c1ccc(N(C)C)cc1)NC2=O` (stereo unspecified), the Potency was inconclusive [activator, partial curve]. With `S=C(Nc1ccccc1)Nc1nccs1` the Potency was active: 12.6 µM. With `CCOc1ccc(C(=O)Nc2ccc(C(=O)OCc3cc(=O)n4ccsc4n3)cc2)cc1` the Potency was “inactive”. With `C=C(C)CNC(=S)N/N=C1\CCCCc2ccccc21` the Potency was inconclusive [activator, full curve, poor fit]. For `COc1ccc(C2=C(C)C(N3CCC(C(=O)Nc4cc(C)ccc4C)CC3)=NS2(=O)=O)cc1`, the Potency was “inactive”. With `CCOCc1c(C(=O)OCC(=O)Nc2ccc(C)c(S(=O)(=O)N(C)C)c2)oc2ccccc12` the Potency was inconclusive [activator, single point]. In the case of `Cc1ccc(NC(=O)c2c(C(=O)Nc3ccccc3)sc3nc(C)cc(=O)n23)c(C)c1`, the Potency is reported as “inactive”.
